The source of these data is ChEMBL document CHEMBL1201862, “PubChem BioAssay data set” (2004).

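Assay format: 96-well plates, 48-hour exposure. GI50 marks 50% less growth.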 Activity calls are given as the source filed them. Rule as the data show it: active = GI50 up to about 1.1 µM and inactive = higher.

The experiment relates to NCI-H322M. Description: NCI tumour cell line growth inhibition, 48 h.
On to `CC(C)(C)c1ccc(NS(=O)(=O)c2ccc(N)cc2)cc1`, for which the GI50 is inactive: 36.3 µM.
Then `CCSC(=O)N1c2ccc(OC)cc2C=CC1C#N` (stereo unspecified), with inactive: 4.52 µM; and `CC(=O)NC1=C(C)C(=O)c2c(nc3n2CCC3O)C1=O` (stereo unspecified), with inactive: > 100 µM.
`Cc1cc(Cc2c(C)c(C)c(Cc3cc(C)cc(C(C)(C)C)c3O)c(C)c2C)c(O)c(C(C)(C)C)c1`: the GI50 is inactive: > 100 µM.
Then `CN(CC(=O)O)c1ccc(/C=C/c2ccnc3ccccc23)cc1`, with inactive: 10 µM; and `CC1=CC(=O)/C(=C/Nc2nc(-c3cccc([N+](=O)[O-])c3)cs2)C(=O)O1`, with inactive: > 100 µM; and `Cc1cc(S(=O)(=O)Nc2nc(N)nc(N3CCOCC3)n2)c(SCC(=O)O)cc1Cl`, with inactive: > 10 µM.
Then `O=C1OC2C(O)COC2(O)C1(O)Cc1c[nH]c2ccccc12.O=C1OC2C(O)COC2(OCc2c[nH]c3ccccc23)C1O` (stereo unspecified), with inactive: > 100 µM; and `CC1CC[C@@]2(OC1)OC1C[C@H]3[C@@H]4CC=C5CC(OC6OC(CO)C(OC7OC(CO)C(O)C(OC8OCC(O)C(O)C8O)C7OC7OC(CO)C(OC8OC(C)C(OC9OC(C)C(O)C(O)C9O)C(O)C8O)C(O)C7O)C(O)C6O)CCC5(C)[C@H]4CCC3(C)C1[C@@H]2C` (stereo partly specified), with inactive: 5.37 µM.
For `COc1ccc(/C=C2\C[C@H]3[C@@H]4CC=C5C[C@@H](OC(C)=O)CC[C@]5(C)[C@H]4CC[C@]3(C)\C2=N\O)cc1OC` the value was inactive: 22.3 µM; for `CN1CCN([C@H]2C[C@H]3[C@@H]4CC=C5C[C@@H](O)CC[C@]5(C)[C@H]4CC[C@]3(C)[C@H]2O)CC1`, inactive: > 45.4 µM; for `Cc1cc(S(=O)(=O)Nc2nncn2-c2ccc(Cl)cc2)c(S)cc1Cl`, inactive: > 10 µM.
Turning to `O=C1NC2(CCCCCC2)C2CCCCCCC12O` (stereo unspecified), the GI50 was inactive: > 100 µM.
In the case of `CC1=C(c2cc(C(=O)Nc3nccs3)nc(NC#N)n2)Sc2ccccc2N1`, the GI50 is inactive: > 100 µM.
For `C=C1c2c(cc3c(c2O)c(=O)c2ccccc2n3C)OC1(C)C` the value was inactive: > 100 µM; for `Cn1c2ccccc2n2c(=O)c3cc([N+](=O)[O-])ccc3c(C#N)c12`, inactive: > 100 µM.
Then `Cn1cnc2nc(Cl)nc(NC(C)(C)C(C)(C)O)c21`, with inactive: > 100 µM; and `Clc1ccc(CCn2cncn2)cc1`, with inactive: > 100 µM.
For `COc1cc(C2c3cc4c(cc3OC(N3CCCC3)C2C)OCO4)cc(OC)c1OC` (stereo unspecified) the value was active: 0.619 µM; for `COc1cccc2c1C(=O)c1c(O)c3c(c(O)c1C2=O)C[C@@](O)(/C(C)=N/NC(=O)c1ccccc1)C[C@@H]3OC1CC(N)C(O)C(C)O1` (stereo partly specified), active: 0.998 µM; for `CC(C)(C)C1CC[C@H]2c3c([nH]c4ccccc34)[C@H]3C(=O)N(c4ccc(F)cc4)C(=O)[C@H]3[C@H]2C1` (stereo partly specified), inactive: 19.5 µM.
Consider `Cc1ccc(CC2(OCCN(C)C)CCC(C(C)(C)C)CC2)cc1` (stereo unspecified), for which the GI50 was inactive: 3.07 µM.
Then `CC(C)(C)OC(=O)N1CC(O)O[C@H](c2ccccc2)[C@@H]1c1ccccc1` (stereo partly specified), with inactive: 33.2 µM; and `CN(C)c1ccc(/C=N/c2nc3cc4sc(/N=C/c5ccc(N(C)C)cc5)nc4cc3s2)cc1`, with inactive: > 100 µM.
For `NC1C2C(CC(=O)O)OCC=C3CN4CCC1(C(=O)C(=O)O)C4CC32` (stereo unspecified) the value was inactive: > 100 µM; for `Cc1nnc2n1N=C(c1cc(F)c(Cl)cc1Cl)/C(=C/c1ccc(Cl)cc1)S2`, inactive: 13 µM.
Then `O=C(/C=C/c1ccccc1)CSc1nc2ccc(I)cc2c(=O)n1Cc1ccccc1`, with inactive: 24.4 µM; and `NS(=O)(=O)C1CCCCC1C(=O)NNC(=O)C(=O)Nc1nnc(S)[nH]1` (stereo unspecified), with inactive: > 100 µM.
Consider `Cc1cc(C)[n+]2c(c1)C=CC2.[O-][Cl+3]([O-])([O-])[O-]`, for which the GI50 was inactive: 40.6 µM.
Then `CSc1ncc2c(C#N)c3ccccn3c(=O)c2n1`, with inactive: > 100 µM; and `O=[N+]([O-])c1cc(C2SCc3nc4ccccc4n32)ccc1Cl` (stereo unspecified), with inactive: 40.9 µM.
Then `OC1CCCCCCCCCCC1SCCCCl` (stereo unspecified), with inactive: > 100 µM.
Then `O=C(/C=C/c1ccccc1O)c1cccs1`, with inactive: > 100 µM; and `S=C(Nc1ccccc1)N1N=C2c3ccccc3CC[C@H]2[C@@H]1c1ccccc1`, with inactive: > 100 µM.
Turning to `COC(=O)C(=O)C(C(=O)OC)C(=O)C(=O)Nc1cc(Cl)c(Cl)cc1Cl` (stereo unspecified), the GI50 is inactive: > 100 µM.
Consider `COC(=O)CC(CC(=O)C(=O)OC)C(=O)OC` (stereo unspecified), for which the GI50 is inactive: > 100 µM.
In the case of `CO[C@H]1c2cccc3cccc(c23)[C@@H]1n1[nH]c(=O)n(C(C)(C)C)c1=O`, the GI50 was inactive: > 100 µM.
Then `O=C(NN1C(=O)CS(=O)(=O)C1c1ccc(C(F)(F)F)cc1)c1ccncc1` (stereo unspecified), with inactive: > 100 µM.
Then `CCNC1=C(NC(=O)c2ccc(OC)cc2)C(=O)c2ccccc2C1=O`, with inactive: > 100 µM; and `COc1ccc2[nH]c3c(C)c4ccncc4c(C)c3c2c1`, with active: 0.198 µM; and `CCCN(CCCC(NC(C)=O)C(=O)NCc1ccccc1)C(=O)N(CCCl)N=O` (stereo unspecified), with inactive: 25.5 µM.
For `O=C1CSC(C(/N=N/c2ccc(Cl)cc2)c2nc3ccccc3[nH]2)=N1` (stereo unspecified) the value was inactive: > 100 µM.
For the molecule `CN(C)CCCNC(=O)N/N=C/c1cccc([N+](=O)[O-])c1`, the GI50 is inactive: > 100 µM.
For `O=C(/C=N/O)c1c(-c2ccccc2)[nH]c(-c2ccccc2)c1-c1ccccc1` the value was inactive: 11.6 µM.
Then `CC(C)Oc1cccc(N2C(n3ccnc3)=Nc3ccncc3S2(=O)=O)c1`, with inactive: 17.8 µM; and `O=C(CCc1nnc2s/c(=C\c3ccc(Cl)cc3Cl)c(=O)n12)Nc1cc(Cl)c(Cl)cc1Cl`, with inactive: > 10 µM; and `N#Cc1c(N)nc(Sc2ccccc2N)c(C#N)c1-c1ccccc1`, with inactive: 49.5 µM.
For `O=C1Sc2ccc(Br)cc2C(=O)Sc2ccccc21` the value was inactive: 17.9 µM.
For the molecule `Cc1ccc([N+](=O)[O-])cc1S(=O)(=O)Nc1ccc(C2=NOC(c3ccco3)C2)cc1` (stereo unspecified), the GI50 is inactive: 24.8 µM.
For `C=CCC(C)(C(=O)NCCC)C(=O)c1ccccc1O` (stereo unspecified) the value was inactive: > 100 µM; for `CCCCCCCCOCC(O)COC(=O)CCCCCCC` (stereo unspecified), inactive: > 100 µM.
Then `C1=CC2(C=CC13O[C@H](C1CCCCC1)[C@@H](C1CCCCC1)O3)O[C@H](C1CCCCC1)[C@@H](C1CCCCC1)O2`, with inactive: > 50 µM.
Then `O=P1(O)C=CC2(CCCC2)O1`, with inactive: > 100 µM; and `C=C1c2ccccc2C(=O)c2c1c1c(C(=O)OC)c(O)ccc1n2Cc1ccccc1`, with inactive: 1.55 µM; and `CCN(CC)CC(=O)NC1c2ccccc2Oc2c(C)cccc21` (stereo unspecified), with inactive: > 100 µM.
Turning to `O=[N+]([O-])c1ccc(S(=O)(=O)n2c3ccc(Br)cc3c3nc4ccccc4nc32)cc1`, the GI50 is inactive: > 100 µM.
For `Cc1cc(N(CCC#N)CCC#N)ccc1/C=C1N=C(/C=C/c2ccccc2)OC(=O)N\1` the value was inactive: > 100 µM; for `CO/C(N)=C(C#N)/N=C/c1ccccc1`, inactive: > 100 µM; for `CCCN(C(=O)c1ccccc1)C(C#N)c1ccc(C(C#N)N(CCC)C(=O)c2ccccc2)cc1` (stereo unspecified), inactive: 55.8 µM.
Then `N#Cc1c(C#N)c(-c2ccccc2)n(/N=C\c2ccccc2)c1N`, with inactive: 34.8 µM.
With `COc1ccc(CCN2CCC(C#N)(c3ccc(OC)c(OC)c3)CC2)cc1OC`, the GI50 is inactive: > 100 µM.
For `C#Cc1ccccc1C(=O)OC` the value was inactive: > 100 µM; for `CC(C)(C)C1(COC(=O)c2ccc(N)cc2)COC1`, inactive: > 100 µM; for `OCC1OC(n2cnc3cccnc32)CC1O` (stereo unspecified), inactive: > 100 µM.
For `FC(F)(F)c1ccccc1N1CCN(c2nc(-c3cccs3)nc3ccc(Br)cc23)CC1` the value was inactive: 38.3 µM; for `O=C(Cn1c2ccc(Br)cc2c2nc3ccccc3nc21)N/N=C/c1ccccc1`, inactive: 39.4 µM; for `CC(C)(C)N1C(C(=O)c2ccccc2)C1c1ccccc1` (stereo unspecified), inactive: > 100 µM.
Then `CCOC(=O)CCC(C(=O)OCC)n1nc2ccc(Nc3c(C)[n+]([O-])c4ccc(Cl)cc4[n+]3[O-])cc2n1` (stereo unspecified), with inactive: 37.1 µM; and `O=C1CCCCc2cccc(O)c21`, with inactive: > 100 µM.
With `O=C1O/C(=C\c2ccc(O)cc2)C(c2ccc(O)c(Cl)c2)=C1Br`, the GI50 is inactive: 16.2 µM.
For `Cc1ccc(Nc2nc(=S)[nH]c3[nH]ncc23)cc1` the value was inactive: > 100 µM.
With `COc1cc(C2c3[nH]c4ccc(F)cc4c3C[C@H]3COC(=O)N23)cc(OC)c1O` (stereo partly specified), the GI50 was inactive: 24.8 µM.
Consider `CC(=O)OC1CC[C@@]2(C)C(CC(OC3OC(CO)C(O)C(O)C3O)[C@]3(C)C2CCC24CC23CC[C@H]4C(C)CC(O)[C@@H](O)C(C)(C)O)C1(C)C` (stereo partly specified), for which the GI50 is inactive: 14.6 µM.
Regarding `C=C(C)C(=O)OC1C[C@H](COC(C)=O)C2CC=C(C)C2C2OC(=O)C(=C)[C@H]12` (stereo partly specified), the GI50 was inactive: 16.1 µM.
Then `C=CC[P@]1(=O)O[C@H](c2ccccc2)C(C)N1C(C)C` (stereo partly specified), with inactive: > 100 µM; and `CN1CC[C@]2(C)c3c(O)cccc3CC3CCCC1C32C` (stereo partly specified), with inactive: > 100 µM; and `C=C1CCC([N+](=O)[O-])[C@](C)(N=O)CC[C@@H]2C1CC2(C)C` (stereo partly specified), with inactive: 32.1 µM.
Then `C[C@]12CC[C@@H]3c4cc(I)c(O)cc4CC[C@H]3[C@@H]1CC[C@@H]2O`, with inactive: 4.98 µM; and `Cc1cccc(/C=C2\CCCCCC2=O)c1`, with inactive: > 100 µM.
`Nc1ccc(-c2nc3ccc(F)cc3s2)cc1I`: the GI50 is inactive: > 100 µM.
Then `Nc1ccc(O)c2c1C(=O)c1c(N)ccc(O)c1C2=O`, with inactive: > 100 µM.
